In all, about 48,000 compounds went through this assay and about 550 (1.1%) were called active. Another 4% or so got no clear call; they are omitted. Cut-off read from the data, not from the text of the source: active = potency below about 15 µM; inconclusive = mostly about 16 µM to 33 µM; inactive = weaker than that. Some of the results follow.
Potency is the fitted concentration of half-maximal effect.

The assay addresses Lysosomal acid glucosylceramidase (Homo sapiens) (UniProt P04062). Briefly: Glucocerebrosidase.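 Note: the screen sought inhibitors.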 Conditions: purified enzyme, resorufin glucoside fluorescence (screen aimed at inhibitors), 20 min. The gist of the method: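 Wild-type enzyme at 0.2 nM final in 50mM citric acid/KH2PO4, 10mM sodium taurocholate, 0.01% tween-20, pH 5.9, with resorufin beta-D-glucopyranoside at 30 uM final. Compounds titrated, 20 min at RT, red fluorescence read; AC50 from titration.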
Sequence of UniProt P04062 (P04062 whole entry, looked up): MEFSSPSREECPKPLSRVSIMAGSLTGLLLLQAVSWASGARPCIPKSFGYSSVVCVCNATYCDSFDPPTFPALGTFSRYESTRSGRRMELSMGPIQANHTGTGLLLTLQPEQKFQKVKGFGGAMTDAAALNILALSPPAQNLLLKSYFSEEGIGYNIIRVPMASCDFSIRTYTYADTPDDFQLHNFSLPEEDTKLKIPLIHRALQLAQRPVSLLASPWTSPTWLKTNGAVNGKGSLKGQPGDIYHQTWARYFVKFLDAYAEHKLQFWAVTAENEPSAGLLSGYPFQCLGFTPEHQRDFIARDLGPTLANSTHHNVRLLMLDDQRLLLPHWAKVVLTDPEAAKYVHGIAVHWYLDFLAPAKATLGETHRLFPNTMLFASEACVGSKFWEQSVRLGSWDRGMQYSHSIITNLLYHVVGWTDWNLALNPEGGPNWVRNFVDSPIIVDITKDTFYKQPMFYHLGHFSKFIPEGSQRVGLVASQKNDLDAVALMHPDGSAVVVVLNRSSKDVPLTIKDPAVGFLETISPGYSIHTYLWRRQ
Take `COc1ccc(Cn2nnnc2CN2CCOCC2)cc1`: the Potency was inactive: > 76.9 µM.

`CC(C)CSc1nnc2[nH]c(=O)cc(N)n12`: the Potency was inactive: > 76.9 µM. The value for `C=CCn1c(SCc2nc3ccccc3nc2C)nnc1-c1ccoc1C` was inactive: > 76.9 µM; that for `Cc1n[nH]c(C)c1S(=O)(=O)N1CCc2ccccc21` was inactive: > 76.9 µM; that for `Oc1c(CN2CCCCC2)cc(COCc2ccccc2)c2cccnc12` was inactive: > 76.9 µM.

`COc1ccc(CN2C(=O)CCC2(C)C(=O)NC2CCCCC2)c(OC)c1` (centres undefined): the Potency was inactive: > 76.9 µM. Next, `O=C(C1Cc2ccccc2CN1S(=O)(=O)c1cccs1)N1CCCCC1` (centres undefined): inactive: > 76.9 µM; `CN1C(=O)N(CN2CCCCC2)C2C1N(C)C(=O)N2CN1CCCCC1` (centres undefined): inactive: > 76.9 µM; `c1coc(-c2nnc(-c3cccs3)o2)c1`: inactive: > 76.9 µM. The value for `Cc1cc(=O)[nH]c2c(C)c(Cl)ccc12` was inactive: > 76.9 µM; that for `COCCNC(=O)C(c1ccc(F)cc1)N(CC1CCCO1)C(=O)CCC(=O)Nc1ccccn1` (centres undefined) was inactive: > 76.9 µM; that for `CCOc1ccc(NC(=O)CSc2n[nH]c(=O)n2-c2ccccc2)cc1` was inactive: > 76.9 µM. As for `COc1ccc(OC)c(NS(=O)(=O)c2cccs2)c1`, the Potency was inactive: > 76.9 µM. The value for `C/C(N)=C(/C#N)C(=O)COC(=O)CSc1ccccc1` was inactive: > 76.9 µM. The value for `OC1CNCc2cc3c(cc21)OCCO3` (centres undefined) was inactive: > 76.9 µM; that for `COc1cccc(C(=O)Nc2nnc(C(C)C)s2)c1` was inactive: > 76.9 µM. `COc1ccc(OC)c(NC(=O)C2CC(=O)N(c3ccccc3)C2)c1` (centres undefined): the Potency was inactive: > 76.9 µM. Next, `Cn1c(=O)c2c(nc3sccn32)n(C)c1=O`: inactive: > 76.9 µM; `CC(C)(C)NC(=O)c1ccccc1-c1nc(-c2ccccc2Cl)no1`: inactive: > 76.9 µM; `C=CCOc1cccc(C2C(C(=O)c3ccc(C)o3)=C(O)C(=O)N2Cc2ccncc2)c1` (centres undefined): inactive: > 76.9 µM. As to `COC(=O)c1c(NC(=O)CN2CCN(c3ccccc3)CC2)c2c(C)cccc2n1C`, the Potency was inactive: > 76.9 µM. For `c1ccc(Nc2c3c(nc4ncnn24)CCC3)cc1`, the Potency is inactive: > 76.9 µM. The value for `COc1cccc(C2CC(c3ccccc3Cl)n3nnnc3N2)c1` (centres undefined) was inactive: > 76.9 µM; that for `O=S(=O)(c1ccc(-c2nnc(SCc3nnc(-c4ccccc4)o3)o2)cc1)N1CCCC1` was inactive: > 76.9 µM. Next, `O=C(COC(=O)c1ccc[nH]c1=O)NC1CCCC1`: inactive: > 76.9 µM; `CCCn1c(=O)c2ccccc2n2c(SCC(=O)Nc3cc(C)on3)nnc12`: inactive: > 76.9 µM; `O=S(=O)(Cc1ccccc1)/C1=C(\N2CCOCC2)CCCCCC1`: inactive: > 76.9 µM. The value for `O=C(CCCN1C(=O)C2C3C=CC(C3)C2C1=O)N1CCN(c2ccccc2)CC1` (centres undefined) was inactive: > 76.9 µM; that for `O=C(OCCCN1CCCCC1)c1ccc(O)cc1` was inactive: > 76.9 µM. For `Cn1nnnc1SCCNCC#Cc1ccccc1`, the Potency is inactive: > 76.9 µM.

For `C=CCN1C(=O)C(C)(C)Nc2ccccc21`, the Potency was inactive: > 76.9 µM.

With `O=c1[nH]c(=O)n(C2CCCCCC2)c(O)c1C=NCc1ccc(F)cc1`, the Potency is inactive: > 76.9 µM. Next, `CCOC(=O)N1CCC(NC(=O)CSc2cc(=O)n(C)c3ccc(Cl)cc23)CC1`: inactive: > 76.9 µM; `Cc1nc2cc(-c3cccc(F)c3)nn2c(N2CCOCC2)c1C`: inactive: > 76.9 µM; `CCn1cc(C(=O)N2CC=C(c3ccccc3)CC2)c(=O)c2ccc(C)nc21`: inactive: > 76.9 µM.

`Cc1ccc(C(C)C)c(OCC(O)CN2CCOCC2)c1` (centres undefined): the Potency result is “inactive”. The value for `O=C(NCc1ccco1)c1ccc2nc3sc4c(c3c(=O)n2c1)CCCC4` was inactive: > 76.9 µM; that for `CCN1CCc2nc(NC(=O)c3ccc4c(c3)OCCO4)sc2C1` was inactive: > 76.9 µM; that for `Cn1c(C(F)(F)F)nc2c(=O)oc3ccccc3c21` was inactive: > 76.9 µM. Next, `CC(C)=CCC/C(C)=C/CN(CC(C)O)CC(C)O` (centres undefined): inactive: > 76.9 µM; `COc1ccccc1N1CCN(S(=O)(=O)c2ccc(Cl)s2)CC1`: inactive: > 76.9 µM. Next, `Cc1nn(CC(=O)O)c2ccccc12`: inactive: > 76.9 µM; `c1ccc(-c2noc(CSc3nnc(Cc4cccs4)n3-c3ccccc3)n2)cc1`: inactive: > 76.9 µM; `O=C(COc1ccccc1)Nc1nc(-c2cccs2)cs1`: inactive: > 76.9 µM.

In the case of `CC(=O)Nc1nc2ccccc2n1CCOc1ccccc1Cl`, the Potency was inactive: > 76.9 µM. The value for `O=C(O)c1ccc(NS(=O)(=O)c2ccc(Cl)cc2)cc1` was inactive: > 76.9 µM; that for `CC(C)NC(=O)c1ccccc1NC(=O)CN(c1ccc2c(c1)OCO2)S(C)(=O)=O` was inactive: > 76.9 µM; that for `CCOCCCNCc1cccc(OC)c1` was inactive: > 76.9 µM.

Take `CCn1c2ccccc2c2cc(C3C(C#N)=C(C)NC(C)=C3C#N)ccc21`: the Potency was inactive: > 76.9 µM. The value for `O=C(Nc1cccc(-c2nnc(-c3ccccc3)o2)c1)C1CCCCC1` was inactive: > 76.9 µM; that for `Cc1ccccc1CN1CCCNC1=O` was inactive: > 76.9 µM; that for `CCOC(=O)CC1C(=O)NCCN1C(=O)COc1ccc(Br)cc1C` (centres undefined) was inactive: > 76.9 µM. The value for `O=S(=O)(NCCc1ccc2c(c1)OCCO2)c1cccs1` was inactive: > 76.9 µM; that for `C=CCn1c(N2CCCC2)nc2c1c(=O)[nH]c(=O)n2C` was inactive: > 76.9 µM; that for `CN(Cc1nc2ccccc2n1C)S(C)(=O)=O` was inactive: > 76.9 µM. Take `CCOC(=O)CSc1nc2c(sc(=S)n2CCc2ccccc2)c(=O)n1Cc1ccco1`: the Potency is inactive: > 76.9 µM.

With `COc1cc2c3c(c1)C1(C(=O)N3C(C)(C)C=C2C)C(C#N)=C(N)Oc2cc(O)ccc21` (centres undefined), the Potency is inactive: > 76.9 µM. Next, `CN1C(=O)c2oc3ccc(Br)cc3c(=O)c2C1c1ccncc1` (centres undefined): inactive: > 76.9 µM.

Consider `CCOC(=O)C1CCN(C(=O)C2CC(=O)N(c3ccc(C)cc3)C2)CC1` (centres undefined), for which the Potency was inactive: > 76.9 µM. `Cc1ccnc(NC(=O)CCC2CCCCC2)c1`: the Potency result was “inactive”.

Consider `CCC(C)[C@H](NC(=O)NCc1cccs1)C(=O)O` (some centres undefined), for which the Potency is inactive: > 76.9 µM. Take `COc1ccc(Cl)cc1NC(=O)CSc1nnc(COc2ccccc2)n1N`: the Potency is inactive: > 76.9 µM. Next, `COc1cc2c(cc1OC)C(c1cccs1)NCC2` (centres undefined): inactive: > 76.9 µM. Next, `O=C(C1CC1)N(Cc1ccco1)c1nc(-c2ccccc2)cs1`: inactive: > 76.9 µM; `COC(=O)c1ccccc1NC(=O)N1CCN(S(=O)(=O)c2ccc(Cl)cc2)CC1`: inactive: > 76.9 µM.

In the case of `CCc1ncc(C(O)c2cccc(OC)c2OC)n1C` (centres undefined), the Potency is inactive: > 76.9 µM.

Turning to `COc1cccc(S(=O)(=O)N2CCN(c3ccccc3F)CC2)c1`, the Potency was inactive: > 76.9 µM. As to `COC(=O)c1[nH]c2ccc(C)cc2c1NC(=O)CN1CCCC(C)(C)C1`, the Potency is inactive: > 76.9 µM.

As to `COc1cc(OC)c(OC)cc1CN1CCCC(C(=O)N2CCCCC2)C1` (centres undefined), the Potency is inactive: > 76.9 µM.

Consider `Cc1cccc(-n2nc3c(c2NC(=O)c2ccc(Br)o2)CSC3)c1`, for which the Potency was inactive: > 76.9 µM.

As for `CC(C)C(=O)N(Cc1cc(=O)[nH]c2ccccc12)c1ccccc1`, the Potency is inactive: > 76.9 µM. Next, `O=C(CN1CCCC1)N1CCCc2c1c(=O)oc1ccc(OCc3ccccc3)cc21`: inactive: > 76.9 µM; `COC(=O)COc1ccc(S(=O)(=O)N2CCN(c3ccccc3F)CC2)cc1C`: inactive: > 76.9 µM. For `CC1(C)Cc2c(c(-c3ccco3)[nH]c(=O)c2C#N)CO1`, the Potency is inactive: > 76.9 µM. The value for `Cc1noc(C)c1CSc1ncnc2sc3c(c12)CCC3` was inactive: > 76.9 µM; that for `Nc1nnc2c(n1)CCCC2` was inactive: > 76.9 µM; that for `Cc1c(C(=O)NCCC2=CCCCC2)oc2ccc(S(=O)(=O)N3CCOCC3)cc12` was inactive: > 76.9 µM.

As to `Cc1cccc(-n2c(O)c(C=Nc3ccc4c(c3)OCO4)c3ccccc3c2=O)n1`, the Potency is inactive: > 76.9 µM.

`C/C(=C\C(=O)c1ccc(C)o1)Nc1ccc2c(c1)OCO2`: the Potency was inactive: > 76.9 µM. `CCS(=O)(=O)N1CCN(C(=O)CCC2CCCC2)CC1`: the Potency was inactive: > 76.9 µM.

`CCOC(=O)c1csc(Nc2nc3ccc(F)cc3s2)n1`: the Potency was inactive: > 76.9 µM. The value for `COC(=O)c1oc2ccc(Br)cc2c1NC(=O)c1ccccc1` was inactive: > 76.9 µM; that for `CC(C)OCCCn1c(=S)[nH]c2cc3c(cc2c1=O)OCO3` was inactive: > 76.9 µM. Next, `CCc1nnc(NC(=O)CC(=O)Nc2ccccc2C(=O)O)s1`: inactive: > 76.9 µM; `O=C(Nc1ccccc1OC(F)F)c1ccccc1`: inactive: > 76.9 µM. Regarding `CCn1c(SCc2nc(-c3cccs3)no2)nnc1-c1c[nH]c2ccccc12`, the Potency is inactive: > 76.9 µM. The value for `O=C(O)c1ccccc1COc1ccccc1Cl` was inactive: > 76.9 µM; that for `O=C(O)C1C2C=CC(O2)C1C(=O)NC1CCCc2ccccc21` (centres undefined) was inactive: > 76.9 µM. The value for `COCCNC(=O)C(c1cccs1)N(CCc1ccccc1)C(=O)Cn1nnc2ccccc21` (centres undefined) was inactive: > 76.9 µM; that for `O=C1N2c3ccccc3CCc3cccc(c32)C1(O)C(F)(F)F` (centres undefined) was inactive: > 76.9 µM; that for `CC1=CCC2C(=O)N(c3ccc(Br)cc3C)C(=O)C2C1` (centres undefined) was inactive: > 76.9 µM. Next, `COc1cccc(-c2csc(N3CCN(CC(=O)Nc4ccc5c(c4)OCO5)CC3)n2)c1`: inactive: > 76.9 µM. With `Clc1ccc(-c2nn3c(-c4ccccn4)nnc3s2)c(Cl)c1`, the Potency was inactive: > 76.9 µM.

Consider `O=c1cc(CN2CCC3(CC2)OCCO3)c2c(ccc3ccccc32)o1`, for which the Potency was inactive: > 76.9 µM.
